The values below come from a collection of fitness landscapes (doi:10.1126/science.1257360).

B1: PhoQ; a variant is named by its letters at X, in order, P23837 (parent)
chain: MKKLLRLFFPLSLRVRFLLATAAVVLVLSLAYGMVALIGYSVSFDKTTFRLLRGESNLFYTLAKWENNKLHVELPENIDKQSPTMTLIYDENGQLLWAQRDVPWLMKMIQPDWLKSNGFHEIEADVNDTSLLLSGDHSIQQQLQEVREDDDDAEMTHSVAVNVYPATSRMPKLTIVVVDTIPVELKSSYMVWSWFIYVLSANLLLVIPLLWVAAWWSLRPIEALAKEVRELEEHNRELLNPATTRELTSLVRNLNRLLKSERERYDKYRTTLTDLTHSLKTPLXXLQXXLRSLRSEKMSVSDAEPVMLEQISRISQQIGYYLHRASMRGGTLLSRELHPVAPLLDNLTSALNKVYQRKGVNISLDISPEISFVGEQNDFVEVMGNVLDNACKYCLEFVEISARQTDEHLYIVVEDDGPGIPLSKREVIFDRGQRVDTLRPGQGVGLAVAREITEQYEGKIVAGESMLGGARMEVIFGRQHSAPKDE

The list shows a part of the results. Where only a bound is given, the exact number is not on record here.

This assay covers variants of B1. Kind of assay: enrichment ratio after two sorts for PhoP signalling (ratio (wild type AVST 3.29)); higher = more functional. The following applies: with PhoP (E. coli).
For the variant KMIK, the enrichment ratio was no more than 0.25.

In the case of FNGY, the enrichment ratio was no more than 0.25.

As for PPQW, the enrichment ratio was no more than 0.25.

On to DCGA, for which the enrichment ratio is no more than 0.25.

PQCS: the enrichment ratio was no more than 0.25.

With ALVV, the enrichment ratio came out at 0.91.

On to EGLS, for which the enrichment ratio is no more than 0.25.

As for KVVQ, the enrichment ratio is no more than 0.25.

Turning to KENG, the enrichment ratio is no more than 0.25.

For the variant GRWT, the enrichment ratio was no more than 0.25.

On to WQER, for which the enrichment ratio was no more than 0.25.

With GQYS, the enrichment ratio was no more than 0.25.

For NLKW, the enrichment ratio is no more than 0.25.

For HYNC, the enrichment ratio was no more than 0.25.

For the variant RNMK, the enrichment ratio is no more than 0.25.

Consider WEFR, for which the enrichment ratio is no more than 0.25.

As to FNQL, the enrichment ratio was no more than 0.25.

As to ELAQ, the enrichment ratio is no more than 0.25.

Consider FLPS, for which the enrichment ratio was no more than 0.25.

Take LYKL: the enrichment ratio is no more than 0.25.

In the case of PNQI, the enrichment ratio was no more than 0.25.

As for MMLL, the enrichment ratio was 1.58.

GQWG: the enrichment ratio was no more than 0.25.

In the case of PWNL, the enrichment ratio is no more than 0.25.

For FKLY, the enrichment ratio was no more than 0.25.

In the case of LQCE, the enrichment ratio was no more than 0.25.

For the variant RCCY, the enrichment ratio was no more than 0.25.

Regarding LYYI, the enrichment ratio is no more than 0.25.

With ERGG, the enrichment ratio is no more than 0.25.

Turning to GRVH, the enrichment ratio is no more than 0.25.

For the variant VPCG, the enrichment ratio is no more than 0.25.

Take KYLE: the enrichment ratio was no more than 0.25.

Turning to HQRN, the enrichment ratio was no more than 0.25.

In the case of YTID, the enrichment ratio is no more than 0.25.

In the case of LTQF, the enrichment ratio was no more than 0.25.

HQSW: the enrichment ratio was no more than 0.25.

In the case of EFHS, the enrichment ratio was no more than 0.25.

Regarding ESGG, the enrichment ratio was no more than 0.25.

Consider NDYT, for which the enrichment ratio was no more than 0.25.

On to KQRA, for which the enrichment ratio was no more than 0.25.

TSRN: the enrichment ratio is no more than 0.25.

Consider APNE, for which the enrichment ratio is no more than 0.25.

As to FMPL, the enrichment ratio was no more than 0.25.

As for PIND, the enrichment ratio is no more than 0.25.

For the variant KCMG, the enrichment ratio was no more than 0.25.

As for WEIH, the enrichment ratio is no more than 0.25.

For the variant IPHY, the enrichment ratio is no more than 0.25.

With IISW, the enrichment ratio is no more than 0.25.

Take PATG: the enrichment ratio was no more than 0.25.

On to SLYN, for which the enrichment ratio was no more than 0.25.

For the variant VIFP, the enrichment ratio is no more than 0.25.

For VNQM, the enrichment ratio is no more than 0.25.

In the case of YSEF, the enrichment ratio is no more than 0.25.

For the variant DVDC, the enrichment ratio is no more than 0.25.

As to PDNM, the enrichment ratio was no more than 0.25.

Take AKQD: the enrichment ratio is no more than 0.25.

PDQC: the enrichment ratio is no more than 0.25.

With RGQT, the enrichment ratio is no more than 0.25.

Turning to NCQP, the enrichment ratio is no more than 0.25.

Regarding AKWC, the enrichment ratio is no more than 0.25.

LRPG: the enrichment ratio is no more than 0.25.

For the variant MQWD, the enrichment ratio was no more than 0.25.

With TAAP, the enrichment ratio was no more than 0.25.

For LNHG, the enrichment ratio is no more than 0.25.

For NRNV, the enrichment ratio was no more than 0.25.

As to GWKK, the enrichment ratio is no more than 0.25.

As for SAKL, the enrichment ratio was no more than 0.25.

Take KHEI: the enrichment ratio is no more than 0.25.

As for TMDV, the enrichment ratio is no more than 0.25.

Turning to QPIV, the enrichment ratio was no more than 0.25.

With MLSW, the enrichment ratio is no more than 0.25.

For EMAK, the enrichment ratio was no more than 0.25.

Regarding FFMN, the enrichment ratio was no more than 0.25.

Consider RGNL, for which the enrichment ratio was no more than 0.25.

Turning to TYGY, the enrichment ratio was no more than 0.25.

On to IGTI, for which the enrichment ratio is no more than 0.25.

As to TAIL, the enrichment ratio is no more than 0.25.

For the variant RGRI, the enrichment ratio is no more than 0.25.

Take GGTQ: the enrichment ratio is no more than 0.25.

For WFKV, the enrichment ratio is no more than 0.25.

As to KANP, the enrichment ratio was no more than 0.25.

With SPSM, the enrichment ratio was no more than 0.25.

Consider VVCC, for which the enrichment ratio is no more than 0.25.

VTYQ: the enrichment ratio was no more than 0.25.

As to YICF, the enrichment ratio amounted to 1.32.

For the variant WCWG, the enrichment ratio is no more than 0.25.

Consider ANLV, for which the enrichment ratio worked out at 14.1.

TGSN: the enrichment ratio was 8.1.

In the case of EPVN, the enrichment ratio was no more than 0.25.

In the case of PNGM, the enrichment ratio is no more than 0.25.

Turning to PWPR, the enrichment ratio is no more than 0.25.

NIYI: the enrichment ratio is no more than 0.25.

FHLP: the enrichment ratio is no more than 0.25.

Take SHVW: the enrichment ratio was no more than 0.25.

Regarding SVTY, the enrichment ratio was 7.86.

Turning to MGYW, the enrichment ratio is no more than 0.25.

In the case of PYTD, the enrichment ratio is no more than 0.25.

With PSSI, the enrichment ratio is no more than 0.25.

Consider NGAK, for which the enrichment ratio is no more than 0.25.

On to VHMM, for which the enrichment ratio is no more than 0.25.

As to SFDC, the enrichment ratio was no more than 0.25.

For DGWN, the enrichment ratio was no more than 0.25.

Turning to TYVP, the enrichment ratio was no more than 0.25.

Turning to YRMP, the enrichment ratio was determined as 0.643.

In the case of SPNS, the enrichment ratio is no more than 0.25.

As to NLQF, the enrichment ratio is no more than 0.25.

Consider PQID, for which the enrichment ratio is no more than 0.25.

For the variant NNLF, the enrichment ratio was no more than 0.25.

For the variant SYAV, the enrichment ratio was no more than 0.25.

As for GWHP, the enrichment ratio was no more than 0.25.

On to KFYG, for which the enrichment ratio was no more than 0.25.

With KHSE, the enrichment ratio is no more than 0.25.

Turning to VDSY, the enrichment ratio was no more than 0.25.

For EHQQ, the enrichment ratio was no more than 0.25.

Regarding NIIQ, the enrichment ratio was no more than 0.25.

Turning to NVAP, the enrichment ratio is no more than 0.25.

As for HKMQ, the enrichment ratio is no more than 0.25.

Consider MEAF, for which the enrichment ratio was no more than 0.25.

Regarding FHHM, the enrichment ratio was no more than 0.25.

As to WHHL, the enrichment ratio is no more than 0.25.

For ASHW, the enrichment ratio was no more than 0.25.

For the variant VMTM, the enrichment ratio is no more than 0.25.

Consider HQPT, for which the enrichment ratio was no more than 0.25.

As to FHAW, the enrichment ratio is no more than 0.25.

For the variant FEMK, the enrichment ratio is no more than 0.25.

On to NWPW, for which the enrichment ratio is no more than 0.25.

Take QCKN: the enrichment ratio was no more than 0.25.

On to SVPH, for which the enrichment ratio is no more than 0.25.

In the case of MIYL, the enrichment ratio is 1.16.

For LIGG, the enrichment ratio was no more than 0.25.

For IMIV, the enrichment ratio is no more than 0.25.

For LQTL, the enrichment ratio was no more than 0.25.

As for SQDW, the enrichment ratio was no more than 0.25.

For RKHD, the enrichment ratio is no more than 0.25.

Regarding LIND, the enrichment ratio is no more than 0.25.

Regarding IHVR, the enrichment ratio was no more than 0.25.

Turning to YPRI, the enrichment ratio was no more than 0.25.

With LQAE, the enrichment ratio is no more than 0.25.

With DWDS, the enrichment ratio was no more than 0.25.

On to FCDD, for which the enrichment ratio was no more than 0.25.

In the case of FEID, the enrichment ratio was no more than 0.25.

As for IDCS, the enrichment ratio is no more than 0.25.

As for LHWL, the enrichment ratio was no more than 0.25.

Take MPVS: the enrichment ratio was no more than 0.25.

As to IYSP, the enrichment ratio is no more than 0.25.

As for TVPT, the enrichment ratio is no more than 0.25.

As for GDSS, the enrichment ratio is no more than 0.25.

Consider IVMP, for which the enrichment ratio was no more than 0.25.

Take DAQN: the enrichment ratio was no more than 0.25.

As for PMCY, the enrichment ratio is no more than 0.25.

In the case of YHPI, the enrichment ratio is no more than 0.25.

Turning to EKLV, the enrichment ratio was no more than 0.25.

Take NGTH: the enrichment ratio was no more than 0.25.
